# Data from the supplement of paper PMC8728848.
# Some of the results follow.
# Tests used:
# Test in all cases: glycan array binding signal (z-score within array); higher = stronger binding
# Settings in all cases: glycan notation: IUPAC condensed, linker removed
# [1] = biological target: Neu5Ac(a2-3)Gal(b1-4)GlcNAc(b1-3)[Neu5Ac(a2-3)Gal(b1-4)GlcNAc(b1-6)]GalNAc
# In short: (§1)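 From the Consortium for Functional Glycomics database, 3228 arrays were curated, keeping only those whose protein sequence was available. Binding is given as a within-array Z-score averaged across arrays sharing a protein sequence and across linkers. Negative Z-scores can be read as non-binding.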
# [2] = biological target: Neu5Ac(a2-3)Gal(b1-4)GlcNAc(b1-6)GalNAc
# In short: as §1
# [3] = biological target: Neu5Ac(a2-3)Gal(b1-4)GlcNAc(b1-6)[Gal(b1-3)]GalNAc
# In short: as §1
# [4] = biological target: Neu5Ac(a2-3)Gal(b1-4)GlcNAc(b1-6)[Neu5Ac(a2-3)Gal(b1-3)]GalNAc
# In short: as §1
# [5] = biological target: Neu5Ac(a2-3)Gal(b1-4)GlcNAc6S
# In short: as §1
# [6] = biological target: Neu5Ac(a2-3)Gal(b1-4)[Fuc(a1-3)]GlcNAc
# In short: as §1
# [7] = biological target: Neu5Ac(a2-3)Gal(b1-4)[Fuc(a1-3)]GlcNAc(b1-2)Man
# In short: as §1
# [8] = biological target: Neu5Ac(a2-3)Gal(b1-4)[Fuc(a1-3)]GlcNAc(b1-3)Gal
# In short: as §1
# [9] = biological target: Neu5Ac(a2-3)Gal(b1-4)[Fuc(a1-3)]GlcNAc(b1-3)Gal(b1-4)GlcNAc
# In short: as §1
# [10] = biological target: Neu5Ac(a2-3)Gal(b1-4)[Fuc(a1-3)]GlcNAc(b1-3)Gal(b1-4)[Fuc(a1-3)]GlcNAc(b1-3)Gal(b1-4)[Fuc(a1-3)]GlcNAc
# In short: as §1
# [11] = biological target: Neu5Ac(a2-3)Gal(b1-4)[Fuc(a1-3)]GlcNAc(b1-3)GalNAc
# In short: as §1
# [12] = biological target: Neu5Ac(a2-3)Gal(b1-4)[Fuc(a1-3)]GlcNAc(b1-6)[Gal(b1-3)]GalNAc
# In short: as §1
# [13] = biological target: Neu5Ac(a2-3)Gal(b1-4)[Fuc(a1-3)]GlcNAc(b1-6)[Neu5Ac(a2-3)Gal(b1-3)]GalNAc
# In short: as §1
# [14] = biological target: Neu5Ac(a2-3)Gal(b1-4)[Fuc(a1-3)]GlcNAc6S
# In short: as §1
# [15] = biological target: Neu5Ac(a2-3)Gal6S(b1-4)GlcNAc
# In short: as §1
# [16] = biological target: Neu5Ac(a2-3)Gal6S(b1-4)[Fuc(a1-3)]GlcNAc
# In short: as §1
# Neu5Ac(a2-3)GalNAc = biological target: Neu5Ac(a2-3)GalNAc
# In short: as §1
# [17] = biological target: Neu5Ac(a2-3)GalNAc(b1-4)GlcNAc
# In short: as §1
# [18] = biological target: Neu5Ac(a2-3)[GalNAc(b1-4)]Gal(b1-4)Glc
# In short: as §1
# [19] = biological target: Neu5Ac(a2-3)[GalNAc(b1-4)]Gal(b1-4)GlcNAc
# In short: as §1
# [20] = biological target: Neu5Ac(a2-3)[GalNAc(b1-4)]Gal(b1-4)GlcNAc(b1-3)GalNAc
# In short: as §1
# [21] = biological target: Neu5Ac(a2-3)[Neu5Ac(a2-6)]GalNAc
# In short: as §1
# Neu5Ac(a2-6)Gal = biological target: Neu5Ac(a2-6)Gal
# In short: as §1
# [22] = biological target: Neu5Ac(a2-6)Gal(b1-3)GlcNAc(b1-3)[Gal(b1-4)GlcNAc(b1-6)]Gal(b1-4)Glc
# In short: as §1
# Neu5Ac(a2-6)Gal(b1-4)Glc = biological target: Neu5Ac(a2-6)Gal(b1-4)Glc
# In short: as §1
# [23] = biological target: Neu5Ac(a2-6)Gal(b1-4)GlcNAc
# In short: as §1
# [24] = biological target: Neu5Ac(a2-6)Gal(b1-4)GlcNAc(b1-2)Man
# In short: as §1
# [25] = biological target: Neu5Ac(a2-6)Gal(b1-4)GlcNAc(b1-2)Man(a1-3)Man(b1-4)GlcNAc(b1-4)GlcNAc
# In short: as §1
# [26] = biological target: Neu5Ac(a2-6)Gal(b1-4)GlcNAc(b1-2)Man(a1-3)[Gal(b1-4)GlcNAc(b1-2)Man(a1-6)]Man(b1-4)GlcNAc(b1-4)GlcNAc
# In short: as §1
# [27] = biological target: Neu5Ac(a2-6)Gal(b1-4)GlcNAc(b1-2)Man(a1-3)[GlcNAc(b1-2)Man(a1-6)]Man(b1-4)GlcNAc(b1-4)GlcNAc
# In short: as §1
# [28] = biological target: Neu5Ac(a2-6)Gal(b1-4)GlcNAc(b1-2)Man(a1-3)[GlcNAc(b1-4)][Neu5Ac(a2-6)Gal(b1-4)GlcNAc(b1-2)Man(a1-6)]Man(b1-4)GlcNAc(b1-4)GlcNAc
# In short: as §1
binder,measurement,setting,value
VLRB.aGPA.23-GCN4-biotin (Petromyzon marinus) (protein) ACPSQCSCSGTEVNCAGKSLASVPAGIPTTTRVLYLNSNQITKLEPGVFDRLANLRELHLWGNQLVSLPPGVFDNLANLEKLWLNSNQLTSLPAGLFDRLVNLEHLGLCCMKLTELPSGAFDKLTRLKQLGLDQNQLKSIPDGAFARLPSLTHVWLHTNPWDCQCTDILYLSGWVAQHSSIVGEGWPWRHSPDSAKCSGTNTPVRAVTEASTSPSKCP,glycan array binding signal (z-score),[1],-0.084
same,glycan array binding signal (z-score),[2],-0.074
same,glycan array binding signal (z-score),[3],-0.08
same,glycan array binding signal (z-score),[4],-0.087
same,glycan array binding signal (z-score),[5],-0.079
same,glycan array binding signal (z-score),[6],-0.078
same,glycan array binding signal (z-score),[7],-0.079
same,glycan array binding signal (z-score),[8],-0.085
same,glycan array binding signal (z-score),[9],-0.071
same,glycan array binding signal (z-score),[10],-0.065
same,glycan array binding signal (z-score),[11],-0.055
same,glycan array binding signal (z-score),[12],-0.062
same,glycan array binding signal (z-score),[13],-0.078
same,glycan array binding signal (z-score),[14],-0.07
same,glycan array binding signal (z-score),[15],-0.078
same,glycan array binding signal (z-score),[16],-0.089
same,glycan array binding signal (z-score),Neu5Ac(a2-3)GalNAc,-0.08
same,glycan array binding signal (z-score),[17],-0.084
same,glycan array binding signal (z-score),[18],-0.082
same,glycan array binding signal (z-score),[19],-0.078
same,glycan array binding signal (z-score),[20],-0.049
same,glycan array binding signal (z-score),[21],-0.079
same,glycan array binding signal (z-score),Neu5Ac(a2-6)Gal,-0.082
same,glycan array binding signal (z-score),[22],-0.085
same,glycan array binding signal (z-score),Neu5Ac(a2-6)Gal(b1-4)Glc,-0.078
same,glycan array binding signal (z-score),[23],-0.082
same,glycan array binding signal (z-score),[24],-0.084
same,glycan array binding signal (z-score),[25],-0.086
same,glycan array binding signal (z-score),[26],-0.087
same,glycan array binding signal (z-score),[27],-0.078
same,glycan array binding signal (z-score),[28],-0.085
